Some of the results follow. The energies were worked out here from pooled read counts, against the library average; single values are noisy.
target: T1, Pho4 (S. cerevisiae) (UniProt P07270); assay: relative binding free energy (BET-seq); higher = weaker binding; details: reference: library average
T1 sequence: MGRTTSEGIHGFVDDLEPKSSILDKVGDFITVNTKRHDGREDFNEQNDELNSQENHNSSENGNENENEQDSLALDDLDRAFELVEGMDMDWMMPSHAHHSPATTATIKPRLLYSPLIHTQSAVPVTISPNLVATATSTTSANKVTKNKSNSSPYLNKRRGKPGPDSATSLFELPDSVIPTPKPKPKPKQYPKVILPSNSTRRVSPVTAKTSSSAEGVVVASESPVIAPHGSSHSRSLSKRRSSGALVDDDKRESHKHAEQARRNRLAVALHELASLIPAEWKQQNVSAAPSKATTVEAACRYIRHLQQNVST

Sequence | relative binding free energy [kcal/mol]
GCGTTCACGTGATTAT | 0.24
AGGCACACGTGTGGTG | 0.12
TATTTCACGTGAAGCT | 0.38
GGATTCACGTGGCATA | 0.42
AGGTGCACGTGATGCG | 0.04
TTTATCACGTGAAGGA | 0.41
TTAAGCACGTGAGTGG | -0.01
TGATTCACGTGTTAAG | 0.35
GGTGTCACGTGCGTCT | -0.07
TAGGCCACGTGTAGGG | -0.21
AGAGTCACGTGCATGT | 0.01
TATGACACGTGGAGCG | 0.08
ATGTGCACGTGGTATT | -0.12
AGTGCCACGTGCTGGT | -0.15
TGTCGCACGTGGAGTG | -0.07
TTTGGCACGTGCGGTA | -0.17
GTGAGCACGTGGACAT | 0.05
TTTAGCACGTGGATGG | 0.09
TAGTGCACGTGCGTTA | -0.06
AATTTCACGTGCGCGG | 0.14
GGCATCACGTGTGTAT | 0.17
GGGAACACGTGTGGTA | 0.11
TGATGCACGTGATTGT | 0.1
AGGTGCACGTGGGACA | -0.18
GTAGACACGTGAATGG | 0.33
TGCGGCACGTGATGAT | -0.12

Sequence | relative binding free energy [kcal/mol]
TCGTTCACGTGGCTTA | 0.2
TGCGTCACGTGCGGCG | -0.09
TGCGTCACGTGAAGTT | 0.24
ACAGTCACGTGGGGAA | 0.05
GTGGGCACGTGATAAT | 0
TTTATCACGTGAGACG | 0.31
TTTGTCACGTGAAATC | 0.38
GTTGTCACGTGTTAGG | 0.19
GTCTGCACGTGGAGTG | -0.04
TGATACACGTGGTTGT | 0.06
TAATTCACGTGCAGTA | 0.39
TTGTACACGTGTTTCA | 0.01
GGAGTCACGTGAGGAT | 0.33
ATCGTCACGTGGTGCG | -0.08
ATTTTCACGTGAGTAT | 0.38
AACGTCACGTGGGGGA | -0.03
TCTTGCACGTGTTTCG | -0.06
GAGATCACGTGGGGGC | 0.18
GAATTCACGTGAGCGG | 0.34
TTGTACACGTGATCTA | 0.15
CGGGGCACGTGGAGGC | -0.11
TGGTGCACGTGTAAAA | 0.11
TTGGGCACGTGATATG | 0.02
ATGGACACGTGAATTG | 0.28
CGAAACACGTGGGGGC | -0.06
AAGGTCACGTGGCTTG | 0.1

Sequence | relative binding free energy [kcal/mol]
GGTTCCACGTGGGATA | 0.09
TGCGACACGTGGTCGG | -0.11
TGTTACACGTGTATAG | 0.14
TTAGACACGTGATATG | 0.07
GTGTGCACGTGTCTTT | 0.08
GTGCGCACGTGAGGAT | 0.21
GGGTCCACGTGATTAG | 0.19
GGTTCCACGTGGAATG | 0.24
TGTATCACGTGCAGCT | 0.14
GATGGCACGTGGCGGA | -0.19
TTGATCACGTGATTTT | 0.33
AAACTCACGTGGTGTT | 0.13
TTAGTCACGTGATAGC | 0.18
TTGGACACGTGGTAAA | -0.03
TAGCGCACGTGCGGGG | -0.12
TTTTCCACGTGGAATG | 0.08
CTGTTCACGTGCAGGG | 0.21
GTGTTCACGTGAGGGA | 0.39
GAGTACACGTGTGGCT | 0.09
AAAGTCACGTGGAGTT | 0.26
GATGACACGTGCTGTT | 0.01
TATGGCACGTGGATAA | 0.02
AAAGACACGTGTGTAG | 0.17
ATATACACGTGGATGT | -0.02
TTAAGCACGTGGGTCT | -0.17
TTTGACACGTGGGGCA | -0.17

Sequence | relative binding free energy [kcal/mol]
TCGTTCACGTGTTCAT | 0.29
TGTCACACGTGGAAGG | 0
TAATGCACGTGTACGT | -0.07
CAAATCACGTGGGGGT | -0.04
GGGATCACGTGGGCGC | 0.22
TCATTCACGTGATTAT | 0.26
TTGTGCACGTGGTTTG | -0.01
GCTATCACGTGGGGAG | -0.09
CTTTGCACGTGGGAGA | 0.03
TATTTCACGTGAGAGG | 0.41
AGTGGCACGTGGGGCG | -0.22
TAGGGCACGTGAGTTA | 0.13
CGTATCACGTGGAATT | 0.25
AGGGACACGTGTGTTT | 0.18
GGATTCACGTGGGTAC | 0.22
CTTAACACGTGTATGT | 0
AGGAACACGTGCTGTG | 0.06
GCATTCACGTGGTTGA | 0.29
TAACTCACGTGTATGG | 0.16
AAGTGCACGTGATGTT | 0.04
CTCTGCACGTGTTGGT | -0.09
GTATACACGTGTGGGA | 0.02
TTGTTCACGTGTGAAG | 0.27
TGGGCCACGTGGGAAA | -0.12
CGGGTCACGTGTGGAT | 0.27
GTACCCACGTGGGTGT | -0.09

Sequence | relative binding free energy [kcal/mol]
ACTGCCACGTGGTGGG | -0.18
AATTTCACGTGGAGTG | 0.16
TAAGGCACGTGGCGGC | -0.23
CAGCTCACGTGGTGGG | 0.11
GTTCTCACGTGTCTTT | 0.28
TTGACCACGTGTGCGT | -0.11
GTTGGCACGTGATATA | -0.04
GTCGTCACGTGGCAGT | 0.05
ATGAGCACGTGCAGGT | -0.19
AGTTGCACGTGGGTCC | -0.03
GGTGTCACGTGCGGGC | 0.02
TTCTGCACGTGGGATA | -0.15
GTGGGCACGTGTGTGT | -0.06
TGATGCACGTGTTCCA | 0.24
GTATTCACGTGGGGGC | 0.26
TTGTGCACGTGTGAGA | 0.17
ATATGCACGTGGTATA | -0.18
TCAGCCACGTGGGTGT | -0.21
TGCGTCACGTGTTCAG | 0.14
CGTTTCACGTGTGTAC | 0.43
TGGTACACGTGCGTGA | -0.03
TTTGTCACGTGGTTGG | 0.07
TGAGGCACGTGGAAGC | -0.09
CGGGTCACGTGGGATG | 0.07
ATATACACGTGCTGGT | -0.13
CGAGTCACGTGAGTAG | 0.27

Sequence | relative binding free energy [kcal/mol]
TTATGCACGTGTTCAT | -0.24
GGATTCACGTGGATTA | 0.21
CGTTTCACGTGATGGG | 0.28
TCCAGCACGTGGTTGG | -0.03
GGTTTCACGTGATGTT | 0.31
TGAGACACGTGTGGAT | 0.12
AAAAGCACGTGGTGGA | -0.08
TTGAACACGTGTTAGT | 0.01
AAGAACACGTGTTGGT | 0.18
GTGGGCACGTGTAACG | -0.02
AGCTTCACGTGGTGAT | 0.12
TATCGCACGTGATATG | 0.13
ATTGACACGTGCTGTT | -0.16
TATTACACGTGTATCT | 0.05
TGATGCACGTGCGGCG | -0.16
GTTTTCACGTGGGGTC | 0.19
TAGAACACGTGTATTG | 0
TAGCGCACGTGGGGGC | -0.22
GATTGCACGTGTCGTT | -0.11
ATGCGCACGTGTGGGA | 0
AGTTACACGTGTAATT | 0.24
ATATTCACGTGTAAGG | 0.25
GATGGCACGTGCTAGG | -0.11
TGTGTCACGTGGGCGA | -0.02
TACATCACGTGTTAGT | 0.18
GTTATCACGTGTTTTT | 0.15

Sequence | relative binding free energy [kcal/mol]
TGTAACACGTGTGATA | 0.04
AGGAACACGTGTGGGA | 0.02
TTGTTCACGTGAGGAG | 0.31
TTTCGCACGTGTATGT | 0.02
TATGTCACGTGGGTTT | -0.01
GGGACCACGTGGTTGG | -0.17
GGGTTCACGTGAGTAT | 0.39
AAAAGCACGTGGGATG | -0.07
ATTTACACGTGTGGAC | 0.3
GGTTTCACGTGGGTAC | 0.18
CATGTCACGTGTGTGT | 0.14
GGCTTCACGTGGTATA | 0.29
TATGTCACGTGGCAAT | 0.24
AGGTCCACGTGAGTGT | 0.13
GAGAACACGTGCTGTG | 0.1
TATTGCACGTGTTCTG | -0.14
GGTAGCACGTGATGTT | 0.11
TTGTACACGTGTTAGC | 0.06
TAGTTCACGTGATGGT | 0.39
GAGGGCACGTGATGGC | 0.16
TAAATCACGTGGGGTT | 0.07
ATGGTCACGTGACTGG | 0.17
GGCGGCACGTGGGAGT | -0.16
GATGACACGTGAGGGA | 0.31
AGTGACACGTGGGATT | 0
TATATCACGTGAGTAT | 0.25

Sequence | relative binding free energy [kcal/mol]
ATGGGCACGTGGCGAT | -0.26
TCGGCCACGTGGGGGA | -0.17
GTGTACACGTGGTTAA | -0.03
GAAGTCACGTGAGGGA | 0.29
TGATTCACGTGTGCGA | 0.27
TCTCGCACGTGTAGGG | -0.03
ATCGCCACGTGGGTGT | -0.29
GTAGTCACGTGTAGAT | 0.28
GGGTGCACGTGTGGGC | 0.11
ATGTGCACGTGAGTTT | 0.18
AGTATCACGTGTGATT | 0.21
GGAGTCACGTGTAGTT | 0.25
ATGTACACGTGGGAAG | 0.01
TTGTGCACGTGAGGAA | 0.19
TGATGCACGTGTAGTA | 0.07
TTGTGCACGTGAGCTT | 0.19
TATTGCACGTGGTGAT | -0.03
GTGCTCACGTGGTTTA | 0.17
GGCGTCACGTGCGTGT | -0.02
TGTTACACGTGCAAGT | 0.06
GTTGGCACGTGCGGGC | 0.01
AGGAGCACGTGTCGTT | -0.07
TATGCCACGTGTGAGT | 0.04
CGTAGCACGTGTGGGA | -0.1
AGTTACACGTGGTGTA | -0.04
TGAGACACGTGTGGTT | -0.03

Sequence | relative binding free energy [kcal/mol]
AAGGTCACGTGGTGTC | -0.06
TATGTCACGTGATTTA | 0.2
TTGGTCACGTGGCGAG | 0.02
TGGGGCACGTGAGGTA | 0.13
ATCGGCACGTGAGATG | 0.15
TAGGCCACGTGTTGTA | -0.21
TGTATCACGTGAGAAT | 0.26
GGTATCACGTGTAAGT | 0.22
TGATTCACGTGGTACT | 0.1
GTGGTCACGTGGCTGT | 0.11
TTATACACGTGTCAGG | 0.19
GAGCGCACGTGGGAGT | -0.17
AAGGGCACGTGTTCTG | -0.18
TGTTCCACGTGTGGGC | 0.14
TTGAGCACGTGGGGTC | -0.25
TAGGTCACGTGGGCTA | -0.04
AGGATCACGTGAGGAG | 0.31
GAGGTCACGTGTACGG | 0.26
TAAGGCACGTGGAGAA | -0.02
AGGGGCACGTGGTCGC | -0.28
AGGGTCACGTGAAGTA | 0.29
TACGGCACGTGGAGGA | 0.02

Source: the BET-seq Pho4 binding data (Le et al. 2018)
